# Measured values reported in article PMC12136788.
# This is one part of the list.
# T1: UNK ZnF1-6 (called full-length) (human, UniProt Q9C0B0 30-357)
# T1 sequence: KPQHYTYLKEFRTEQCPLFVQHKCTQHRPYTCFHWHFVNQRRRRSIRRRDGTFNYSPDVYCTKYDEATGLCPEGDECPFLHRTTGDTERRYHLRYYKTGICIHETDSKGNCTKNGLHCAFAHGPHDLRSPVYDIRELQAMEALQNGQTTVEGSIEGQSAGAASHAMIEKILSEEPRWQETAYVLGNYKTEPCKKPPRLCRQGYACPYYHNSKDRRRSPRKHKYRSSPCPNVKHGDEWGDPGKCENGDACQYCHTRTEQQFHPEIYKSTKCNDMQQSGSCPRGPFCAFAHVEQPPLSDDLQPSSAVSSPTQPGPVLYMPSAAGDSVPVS
# B1: ENSG00000198589:be:win_9451|3pUTR|ENSG00000198589|bound_else_gene|NA|bound_elsewhere_windowed (ssRNA)
# RNA: GGGAGUUCUACAGUCCGACGAUCUUAAACUAUCAUCUCCACCUUCCUUUUGAUUAGCAAUUUGUACUAAGAAACGAAACAAUGUUAUUUGGUGGUGUAUAAUUCUACUUUUCUAGUAGAUUACUGUGUGGAAUUCUGUGAAAACAACAGAGGAUUGAGCAUCA
# B2: chr22:35606763:35607296:-|three_prime_utr|ENSG00000198125|control|control|control (ssRNA)
# RNA: GGGAGUUCUACAGUCCGACGAUCGCUCCCACCCCCACCCAUCUGGGCCCCGGGUUCAAGAGAGAGCGGGGUCUGAUCUCGUGUAGCCAUAUAGAGUUUGCUUCUGAGUGUCUGCUUUGUUUAGUAGAGGUGGGCAGGAGGAGCCAACAGAGGAUUGAGCAUCA
# B3: ENSG00000107863:be:win_701|CDS|ENSG00000107863|bound_else_gene|NA|bound_elsewhere_windowed (ssRNA)
# RNA: GGGAGUUCUACAGUCCGACGAUCCACCAGUACUGACACAACCUGGUAGGGCCUAUAGAAUGGAAAUACAAGUGCCUCCAUCACCAACAGAUGUUGCAAAAUCAAACACAGCAGUGUGUGUUUGCAAUGAAAGUGUAAGGACUGCAACAGAGGAUUGAGCAUCA
# B4: ENSG00000198589:be:win_5001|CDS|ENSG00000198589|bound_else_gene|NA|bound_elsewhere_windowed (ssRNA)
# RNA: GGGAGUUCUACAGUCCGACGAUCACCGUCAGUUUCAGUUUCAAAAAACGUCAAUGUGAAAGACAUUCUCCGAAGCUUGGUUAACAUACCAGCAGAUGGAGUCACAGUGGAUCCUGCCCUUCUGCCACCAGCCUGCCUUGGAGCCAACAGAGGAUUGAGCAUCA
# B5: chr1:235113809:235113910:-|CDS|ENSG00000173726|msi1_unk|FALSE|overlapping (ssRNA)
# RNA: GGGAGUUCUACAGUCCGACGAUCAGGCUUUUCAGGUUACAUGUAAUUUUAUGUAAAUCUUACAGGUGAAUAUGAGAAGGGCGUAGACCAUCUGACAAAUGCAAUUGCUGUGUGUGGACAGCCACAGCAGUUACUGCAGGUCUUCAACAGAGGAUUGAGCAUCA
# B6: chr7:40094668:40094770:+|CDS|ENSG00000065883|unk|total|mutant (ssRNA)
# RNA: GGGAGUUCUACAGUCCGACGAUCGGAUAUGGAGACAUUUACCUCAAUGCUGGUCCCAUGUUGUUCCGUGGAGACAAGGACCACCGAUUUGAAUACCGCCAUGGUCCUAUUGCAGUCCUGGCAAACAGCAGUGACCCUUCCACGCAACAGAGGAUUGAGCAUCA
# B7: chr10:50305585:50307321:-|three_prime_utr|ENSG00000198964|control|control|control (ssRNA)
# RNA: GGGAGUUCUACAGUCCGACGAUCUGAAAAGAAUGUCCAAGGAAUUGUACCUCGAUCUUACCAUUGGCCUUUCCCCUGGCCAGUAGUCCACCUCAGUAGGCAAGUUAAAUACAGCCGGCUGGUGAAUGACACAUAACAGCUGUACAACAGAGGAUUGAGCAUCA
# B8: chr2:30158716:30158817:+|CDS|ENSG00000119801|msi1|FALSE|bound_elsewhere (ssRNA)
# RNA: GGGAGUUCUACAGUCCGACGAUCGUUUGCCACUGAAGACAGCCAGCGAUAUAAGGAAGGCCGCGUGAUCCUGGAACGUGCUCUAGUUCGAGAGAGUGAGGGCUUUGAGGAGCAUGUACCAUCUGAUAACUCUUGAAGAUACAGCAACAGAGGAUUGAGCAUCA
# B9: ENSG00000134243:stop:overlap|stop_codon|ENSG00000134243|stop_codon|NA|stop_codon (ssRNA)
# RNA: GGGAGUUCUACAGUCCGACGAUCCAGCCUCCCACACUAAUAAAAGUGGUUAUCAUGAUGACUCAGAUGAGGACCUCUUGGAAUAGCUCUUCAGAGGAGCUGGACCCAGCAUGGAUGGUGGAACCACAGUACCUCUUACACUCCCAACAGAGGAUUGAGCAUCA
# B10: chr3:52708059:52708100:+|3pUTR|ENSG00000114902|msi1_unk|FALSE|overlapping (ssRNA)
# RNA: GGGAGUUCUACAGUCCGACGAUCACACAAGUAUGAAGUUUCUUUCAGGUGUAAAUAAUGAAAAAUAAAUGCCUCAUAAAUGAUAGUACAAUGUAACUAUCAAAGUUUUAUAAUUCAUUAUGAGUUAACCAUUUUAAUGUUUCCCAACAGAGGAUUGAGCAUCA
# B11: chr16:11691289:11692082:-|CDS|ENSG00000153066|control|control|control (ssRNA)
# RNA: GGGAGUUCUACAGUCCGACGAUCCCAAGCUCCGUUCCUCACAUUGAGGAGAACAGGUAUCUCUUUCCAGAAGUGGACAUGACUAGCACAAACUUCACAGGCCUGAGCUGCAGAACCAACAAGACUCUCAACAUCUACCUUUUGCAACAGAGGAUUGAGCAUCA
# B12: chr10:37831617:37833116:-|CDS|ENSG00000198105|control|control|control (ssRNA)
# RNA: GGGAGUUCUACAGUCCGACGAUCCAUCAGAGGACUCACACAGGGGAGAAGCCGUAUGAGUGUAAUGCAUGUGGGAAGACCUUUAGUCAGAGGUCAGUGCUCACCAAACAUCAGAGAAUUCACACAAGGGUGAAAGCUCUUUCACAACAGAGGAUUGAGCAUCA
# B13: chr16:2602459:2602560:+|3pUTR|ENSG00000140992|msi1|total|mutant (ssRNA)
# RNA: GGGAGUUCUACAGUCCGACGAUCAACUAUGUACAGAGAACUUUUUACAAAAGGCAGACCUUUUUUAAGCUGUGUAACCCACACCGCCUAACCACCUGGCAGAAUGACUACGAACCGGGGUCAUUGUGCUGGUAAAAGCCUCUACAACAGAGGAUUGAGCAUCA
# B14: chr16:70532473:70532607:+|CDS|ENSG00000189091|unk|FALSE|bound_elsewhere (ssRNA)
# RNA: GGGAGUUCUACAGUCCGACGAUCCAAUGAUCCAACAGGGGAAGCAGCAGCUAAUACCCAGCAGACACUUACUUUCUAUGAGCUAGACCUUGGUUUAAAUCAUGUGGUCCGAAAAUACAGUGAACCUUUGGAGGAACACGGCAACAACAGAGGAUUGAGCAUCA
# Biological target: T1, UNK ZnF1-6 (called full-length)
# Assay: nsRBNS (natural sequence RNA bind-n-seq); RBNS binding buffer (assumed for nsRBNS): 25 mM Tris pH 7.5, 150 mM KCl, 3 mM MgCl2, 0.01% Triton X-100, 500 ug/ml BSA, 20 U/ml SUPERase-In, 4 C; UNK is unkempt and MSI1 is Musashi-1; names of the RNAs are library labels; protein concentration not given here; high values mean tight binding
row,Binder,binding signal [enrichment R]
1,B1,0.643
2,B2,0.806
3,B3,0.78
4,B4,0.467
5,B5,0.397
6,B6,0.502
7,B7,0.47
8,B8,0.666
9,B9,0.871
10,B10,0.575
11,B11,0.724
12,B12,0.611
13,B13,0.423
14,B14,0.528
